Structures can show the parent of a compound that is named as a salt. ± gives the standard deviation of the averaged measurements. Whole data set: some 1,900 compounds, median “normalised cell viability (NPI; 0 = phenylarsine oxide control, 1 = DMSO control)” near 1, cut for the lowest 2% near 0.039. This is one part of the list.
Tested on: NCI-H1944
Assay: normalised cell viability (NPI; 0 = phenylarsine oxide control, 1 = DMSO control) (fraction of DMSO control); NCI-H1944 is a non-small cell lung cancer line; higher = more viable cells (less compound toxicity)
Details: 6 days
[1] = glucocorticoid arm: hydrocortisone 2.75 uM co-treatment, compound 1 µM
[2] = glucocorticoid arm: hydrocortisone 2.75 uM co-treatment, compound 5 µM
[3] = glucocorticoid arm: hydrocortisone 2.75 uM pre-treated 2 days and continued, compound 1 µM
[4] = glucocorticoid arm: hydrocortisone 2.75 uM pre-treated 2 days and continued, compound 5 µM
[5] = glucocorticoid arm: vehicle, compound 1 µM
[6] = glucocorticoid arm: vehicle, compound 5 µM
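Also: CTB read-out in 384-well plates, mean of triplicate wells, normalised per plate against 1 µM phenylarsine oxide and 0.1% DMSO, compounds added 24 h after seeding.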

Row | SMILES | normalised cell viability [1] | normalised cell viability [2] | normalised cell viability [3] | normalised cell viability [4] | normalised cell viability [5] | normalised cell viability [6]
1 | Nc1nc(N)c2nc(-c3cccc(O)c3)cnc2n1 | 0.999 ± 0.02 | 0.985 ± 0.035 | 1.03 ± 0.046 | 0.965 ± 0.021 | 0.9967 ± 0.0049 | 0.9993 ± 0.0095
2 | COc1ccccc1N1CCN(CC(O)COc2cccc3ccccc23)CC1 (stereo not drawn) [Naftopidil dihydrochloride] | 0.995 ± 0.013 | 1 ± 0.024 | 1.013 ± 0.0058 | 1.04 ± 0.059 | 1.003 ± 0.0061 | 1.02 ± 0.015
3 | COc1ccccc1N1CCN(CC(O)COc2cccc3ccccc23)CC1 (stereo not drawn) [Naftopidil DiHCl] | 0.961 ± 0.019 | 0.899 ± 0.014 | 0.967 ± 0.025 | 0.897 ± 0.024 | 0.996 ± 0.016 | 0.994 ± 0.0066
4 | COc1ccccc1N1CCN(CC(O)COc2cccc3ccccc23)CC1 (stereo not drawn) [Naftopidil] | 1.01 ± 0.015 | 0.996 ± 0.017 | 0.998 ± 0.02 | 1 ± 0.011 | 1.007 ± 0.0058 | 1.01 ± 0.01
5 | CN1CCC(=C2c3ccccc3CC(=O)c3sccc32)CC1 [Ketotifen fumarate] | 1.01 ± 0.012 | 1.02 ± 0.027 | 1.01 ± 0.016 | 0.856 ± 0.28 | 0.9907 ± 0.0035 | 0.9967 ± 0.0049
6 | CN1CCC(=C2c3ccccc3CC(=O)c3sccc32)CC1 [Ketotifen Fumarate] | 1.03 ± 0.021 | 1.02 ± 0.015 | 1.02 ± 0.01 | 1.013 ± 0.0058 | 1.003 ± 0.0061 | 1.002 ± 0.0072
7 | CCOc1ccc(Cc2cc([C@@H]3O[C@H](SC)[C@@H](O)[C@H](O)[C@H]3O)ccc2Cl)cc1 [Sotagliflozin (LX4211)] | 0.994 ± 0.0079 | 0.926 ± 0.01 | 0.98 ± 0.029 | 0.946 ± 0.013 | 0.9947 ± 0.004 | 0.9953 ± 0.0081
8 | CC(=O)NCCc1c[nH]c2ccc(O)cc12 [N-Acetyl-5-hydroxytryptamine] | 0.993 ± 0.001 | 0.998 ± 0.014 | 0.873 ± 0.23 | 1.01 ± 0.025 | 1.013 ± 0.0058 | 0.9967 ± 0.0031
9 | O=c1ccc2ccc(O)c(O)c2o1 [Daphnetin] | 0.991 ± 0.0082 | 0.968 ± 0.017 | 0.9823 ± 0.0031 | 0.956 ± 0.038 | 0.992 ± 0.0092 | 0.991 ± 0.007
10 | Nc1ccc(-c2nc3ccc(-c4nc5ccc(N)cc5[nH]4)cc3[nH]2)cc1 | 1.003 ± 0.0058 | 1.01 ± 0.011 | 1.02 | 1.06 ± 0.01 | 0.9897 ± 0.0047 | 1 ± 0.0095
11 | C=CC(=O)Nc1cccc(Nc2nc(Nc3ccc(N4CCN(C(C)=O)CC4)cc3OC)ncc2C(F)(F)F)c1 | 0.877 ± 0.032 | 0.525 ± 0.011 | 0.867 ± 0.014 | 0.518 ± 0.081 | 0.972 ± 0.013 | 0.484 ± 0.096
12 | CS(=O)(=O)CCNCc1ccc(-c2ccc3ncnc(Nc4ccc(OCc5cccc(F)c5)c(Cl)c4)c3c2)o1 [Lapatinib ditosylate; Lapatinib; Lapatinib Ditosylate] | 0.9643 ± 0.0055 | 0.00258 ± 0.00055 | 0.968 ± 0.014 | 0.0327 ± 0.0022 | 0.947 ± 0.0092 | 0.00168 ± 0.00026
13 | CS(=O)(=O)CCNCc1ccc(-c2ccc3ncnc(Nc4ccc(OCc5cccc(F)c5)c(Cl)c4)c3c2)o1 [Lapatinib Ditosylate (Tykerb)] | 0.945 ± 0.0092 | 0.916 ± 0.017 | 0.981 ± 0.021 | 0.938 ± 0.028 | 0.911 ± 0.02 | 0.868 ± 0.022

Reference: the supplement of paper PMC8285479
